The text below walks through data of PubChem BioAssay AID463173 (ICCB-Longwood Screening Facility, Harvard Medical School, 2010).

Molecules are shown by their SMILES. Hit rate of the full screen: of about 52,000 compounds, about 1,700 (3.3%) were called active. Rule as the data show it: active = survival mostly below about 52% (no sharp cut-off); inactive = mostly above about 56%. The list shows a part of the results.

The test system of the test is Wild type. In words: S. aureus survival, RN4220 and DeltatarO strains – OD600, teichoic acid synthesis inhibitors, primary screen (AID 463173). The settings on record: S. aureus RN4220 wild type/DeltatarO growth, OD600, 18 h, hits give low values, screened at 18.75 µg/mL (by protocol).
Regarding `COc1ccc(CCNC(=O)c2cnc3ccc(C)cn3c2=O)cc1`, the survival is inactive: 86%. The same measure for `CCOc1ccc(NC(=O)N2CCC(C(N)=O)(N3CCCCC3)CC2)cc1`: inactive: 112%; for `CC(C)CS(=O)(=O)c1oc(-c2ccc(F)cc2)nc1S(=O)(=O)c1ccccc1`: active: 3%; for `COc1cccc(Cn2nnc(C(=O)Nc3cc(C)ccc3C)c2N)c1`: inactive: 102%. The same measure for `O=C(Cn1c(=O)n(Cc2ccccc2)c(=O)c2sc3ccccc3c21)NCc1ccccc1Cl`: inactive: 125%; for `O=C(CCc1nc(-c2cccs2)no1)Nc1ccccc1[N+](=O)[O-]`: inactive: 74%. With `O=C(NC1CC(=O)N(c2cccc(F)c2)C1)c1ccc(S(=O)(=O)N2CCCC2)cc1` (stereo not given), the survival was inactive: 54%. Turning to `Cc1ccn2c(=O)c(C(=O)NCCc3ccccc3)c(O)nc2c1`, the survival was inactive: 131%.

As for `CCOc1ccccc1CNC(=O)Cn1c(-c2ccccc2)cc(C(C)=O)c1C`, the survival was inactive: 67%. In the case of `CC1CC(C)(C)NC(=O)O1` (stereo not given) it was inactive: 109%; in that of `Cc1ccc2nc(NC(=O)CSc3nccn3Cc3ccc(Cl)cc3)sc2c1`, inactive: 72%. In the case of `Cc1cc(-c2ccccc2)n2nc(N)nc2n1` it was inactive: 104%. The same measure for `CCN(CC)c1cc(C)c2cc(NC(=O)c3cccc(F)c3)ccc2n1`: inactive: 61%; for `CSc1ccc(CCNC(=O)c2cnn(-c3ccccc3)c2-n2cccc2)cc1`: active: 9%. On to `O=C(Nc1cccc(Cl)c1)N1CCSc2ccccc21`, for which the survival was inactive: 127%. Turning to `Cc1cccc(NC(=O)c2cc(S(=O)(=O)N3CCc4ccccc43)ccc2F)c1C`, the survival is inactive: 65%. Regarding `CCOC(=O)c1cnc2c(ccc3ccccc32)c1Nc1ccccc1OCC`, the survival was inactive: 109%. The same measure for `COCCCNC(=O)CS(=O)Cc1nc(-c2cccc(C)c2)oc1C` (stereo not given): inactive: 82%; for `COc1ccc(OC)c(-c2cc(C(=O)NCCc3ccccc3)c3c(-c4ccc(C)cc4)[nH]nc3n2)c1`: inactive: 93%; for `COc1ccc(N2CCN(C(=O)C3CCCN(S(=O)(=O)c4ccc5c(c4)CCCN5C(C)=O)C3)CC2)cc1` (stereo not given): inactive: 115%. In the case of `CCCn1cc(S(=O)(=O)c2ccccc2)c(=O)c2cc(F)c(N3CCCCC3)cc21` it was inactive: 74%; in that of `Cc1ccc(N2C(=O)CSC23C(=O)N(CC(=O)NCCc2ccccc2)c2ccccc23)cc1C` (stereo not given), inactive: 66%. In the case of `CCOc1ccccc1NC(=O)c1c(NC(=O)COc2ccccc2)sc2c1CCCCC2`, the survival is inactive: 144%. With `CC(NC(=O)CCCC1=NS(=O)(=O)c2ccccc2N1)c1ccccc1` (stereo not given), the survival is inactive: 89%. Consider `Cc1ccc(NC(=O)C2CCN(c3nc4ccccc4nc3C(F)(F)F)CC2)cc1F`, for which the survival is inactive: 64%. In the case of `COc1ccc(C(=O)Nc2nnc(S(=O)(=O)N3CCCCCC3)s2)cc1OC` it was inactive: 81%. As to `CCC(C)n1c(=N)c(C(=O)NCc2ccccc2)cc2c(=O)n3cc(C)ccc3nc21` (stereo not given), the survival was inactive: 80%. In the case of `CCOC(=O)c1cc(-c2ccccc2)n(-c2cccc(C(=O)Nc3cccc(F)c3)c2)c1C` it was inactive: 131%.

As for `CCCN1C(=O)CC(C(=O)OC)=C1C`, the survival was inactive: 100%. For the compound `O=C(O)C1C2C=CC(C2)C1C(=O)NCCO` (stereo not given), the survival was inactive: 103%.

For the compound `COc1ccc(C(=O)c2oc3ccccc3c2NC(=O)COc2ccccc2)cc1`, the survival is inactive: 85%. On to `Cc1ccc(CNC(=O)CCc2c(C)nc3c(c(C)nn3-c3ccccc3)c2C)cc1`, for which the survival is inactive: 95%.

Turning to `CCc1cccc(C)c1NC(=O)CC1Oc2ccc(C)cc2NC1=O` (stereo not given), the survival was inactive: 132%. With `COc1ccc(CCNC(=O)c2sc3nc4n(c(=O)c3c2C)CCCC4)cc1OC`, the survival is inactive: 83%. As for `O=C(COc1ccc(Cl)cc1)OCc1cc(=O)n2nc(-c3cccs3)sc2n1`, the survival was active: -6%. In the case of `CC(C)n1c(=N)c(C(=O)NCc2cccnc2)cc2c(=O)n3ccccc3nc21` it was inactive: 131%; in that of `COc1ccc(Cl)cc1NS(=O)(=O)c1cc(Br)cc2c1N(C(=O)C1CC1)CC2`, inactive: 77%; in that of `Cc1cc(C)n(CC(=O)Nc2ccc(F)c(F)c2)c(=O)c1C#N`, inactive: 73%. In the case of `O=C(Cn1c(=O)n(Cc2ccco2)c(=O)c2ccc(C(=O)NC3CCCC3)cc21)Nc1ccc(F)cc1` it was inactive: 76%; in that of `COc1ccc(-n2nc(C(=O)NCCc3ccc(Cl)cc3)c3c4ccccc4n(C)c3c2=O)cc1Cl`, inactive: 85%. The same measure for `Cc1cc(-c2ccc(C)c(S(=O)(=O)N3CCCC(C)C3)c2)on1` (stereo not given): inactive: 85%. As to `O=C(Cn1nc2c(cc1=O)CCCC2)Nc1ccc(F)cc1F`, the survival is inactive: 128%.

With `COc1ccc(CCNC(=O)c2c(O)nc3cc(C)ccn3c2=O)cc1OC`, the survival was inactive: 83%. The same measure for `N#C/C(=C\c1ccc(-c2ccccc2C(=O)O)o1)c1nc2ccccc2[nH]1`: inactive: 84%; for `COc1ccc(C(=O)Nc2ccccc2C(=O)NC(C(=O)NCc2ccco2)C(C)C)cc1` (stereo not given): inactive: 108%; for `O=S(=O)(Nc1cccc(Cl)c1)c1ccc2[nH]c3c(c2c1)CCCCCC3`: inactive: 129%. As for `CCc1ccc(CNC(=O)c2ccc(CSc3nc4ccncc4n3Cc3ccc(OC)cc3)cc2)cc1`, the survival is inactive: 75%. The same measure for `COc1ccc(N2CCN(C(=O)Cc3coc4ccc(C)cc34)CC2)cc1`: inactive: 107%; for `CCN(CC)C(=O)C1=C(C)Nc2nc3ccccc3n2C1c1ccc(Br)cc1` (stereo not given): inactive: 80%. As for `CCc1noc(-c2ccc(NC(C)c3ccccc3)c([N+](=O)[O-])c2)n1` (stereo not given), the survival is inactive: 85%. The same measure for `CC(=O)c1cccc(NC(=O)CCS(=O)(=O)c2cc3c(cc2C)NC(=O)CO3)c1`: inactive: 87%; for `CCOC(=O)c1c(NC(C)=O)c2c3c(sc2n1Cc1nc(-c2ccc(Cl)cc2)oc1C)CCCC3`: inactive: 81%. As to `COc1ccc(C)cc1NC(=O)C(=O)NCCc1sc(-c2ccc(Cl)cc2)nc1C`, the survival is inactive: 85%. In the case of `CC(C)Oc1cccc(NC(=O)C2CCN(S(=O)(=O)Cc3ccccc3)CC2)c1` it was inactive: 85%; in that of `Cc1ccccc1-c1nnc(CN2CCN(c3cc(Cl)ccc3C)CC2)o1`, inactive: 86%; in that of `CCOc1ccccc1C1N=C(N)Nc2nc3ccccc3n21` (stereo not given), inactive: 67%.

With `Cc1nc(N2CCCC2)c2c(C(=O)Nc3ccc(C)c(Cl)c3)c(C)oc2n1`, the survival is inactive: 130%.

For `CCOC(=O)c1c(S(=O)(=O)N2CCC(C(=O)N3CCN(c4cccc(C)c4C)CC3)CC2)c(C)n(C)c1C`, the survival is inactive: 72%. In the case of `CCn1cnc2c(cnn2-c2ccccc2)c1=O` it was inactive: 97%.

`CCC(CC)C(=O)Nc1cc(-c2cn3cccnc3n2)ccc1OC`: the survival was inactive: 117%.

As to `CCOc1ccc(C(=O)Nc2c(C(=O)c3ccccc3)oc3ccccc23)cc1`, the survival is inactive: 60%. The same measure for `O=C(CSc1nnc(COc2ccc(Cl)cc2)o1)Nc1ccccc1`: inactive: 87%; for `COc1ccc(C(CC(=O)Nc2ccc(C)cn2)N2Cc3ccccc3C2=O)cc1OC` (stereo not given): inactive: 70%. `COC(=O)c1c(C)oc2ccc(N(C(=O)c3ccncc3)S(=O)(=O)c3cc(C)c(C)cc3C)cc12`: the survival is inactive: 77%. With `CCOC(=O)N1CCC(NC(=O)c2ccc3c(c2)N(Cc2cccc(C)c2)C(=O)c2ccccc2S3(=O)=O)CC1`, the survival was inactive: 144%.

As to `COC(=O)c1ccc(N=NN2CCCCC2)cc1`, the survival was inactive: 115%. Take `O=S(=O)(c1ccc(F)cc1)N1CCC(Oc2ccc(-n3cnnn3)cc2)CC1`: the survival is inactive: 90%. In the case of `CCC(=O)Nc1ccc2nc(C)n(Cc3ccccc3)c(=O)c2c1` it was inactive: 123%; in that of `COc1cccc(CNC(=O)c2nnn(CC(=O)Nc3cc(Cl)ccc3C)c2N)c1`, inactive: 19%. In the case of `Cc1ccc(-c2ccc(=O)n(Cc3ccc(F)cc3)n2)cc1`, the survival is inactive: 80%. Regarding `COc1cccc(CNC(=O)Cn2c(=O)oc3cc(S(=O)(=O)N4CCCC4)ccc32)c1`, the survival was inactive: 119%. On to `CCC(=O)N1CCc2cc(Br)cc(S(=O)(=O)CCC(=O)Nc3cccc(CC)c3)c21`, for which the survival is inactive: 104%.

In the case of `Cc1cccc(N2C(=O)C(CC(=O)Nc3cccc(F)c3)N(Cc3cccs3)C2=O)c1` (stereo not given), the survival is active: 0%. `Cc1ccc(Nc2cc(C)nc3nc(Cc4ccc(Cl)cc4)nn23)cc1`: the survival was inactive: 78%.

Regarding `CCOc1ccc(CCNC(=O)CCCc2cc(-c3ccc(OCC)cc3)on2)cc1`, the survival is inactive: 83%. In the case of `N#Cc1c(/N=C/c2ccco2)oc(-c2ccccc2)c1-c1ccccc1` it was inactive: 114%. Take `CC(NC(=O)C1(c2cccs2)CCOCC1)c1ccccc1` (stereo not given): the survival is inactive: 71%.

For `CCn1cc(C(=O)N2CCN(c3cc(Cl)ccc3C)CC2)c2cc(OC)c(OC)cc2c1=O`, the survival is inactive: 86%.

As for `Cc1ccc(CN2CCSc3ccc(C(=O)Nc4ccc(Cl)cc4)cc32)cc1`, the survival is inactive: 81%.

Regarding `CCCN(CCC)CCCNC(=O)c1cc2c(=O)oc3ccc(C)cc3c2s1`, the survival was inactive: 91%. The same measure for `Cc1nc2cccnc2n1C1CCN(S(=O)(=O)c2ccc(Cl)cc2)CC1`: inactive: 84%. The same measure for `CN(C)S(=O)(=O)n1cc(/C=C(\NC(=O)c2ccccc2F)C(=O)NCCCn2ccnc2)c2ccccc21`: inactive: 105%; for `CC(=O)Nc1nnc(SCC(=O)N2CCCC2)s1`: inactive: 99%; for `Cc1ccc2cc(CN(Cc3ccccc3)C(=O)C3CC3)c3nnnn3c2c1`: inactive: 116%.

Regarding `Cc1ccccc1CN1CCC(CNc2ncnc3onc(-c4ccc(Cl)cc4)c23)CC1`, the survival was inactive: 60%. In the case of `Cc1ccc2nc(/C(C#N)=C/c3cccc(Br)c3)[nH]c2c1` it was active: -11%; in that of `O=C(Cc1csc2ccccc12)NCc1cccc(Br)c1`, inactive: 91%; in that of `Cc1ccc(NC(=O)C2CCCN(c3ncnc4c3nc3n4CCCCC3)C2)cc1F` (stereo not given), inactive: 73%. In the case of `COc1ccc2[nH]c(=O)c(CN(Cc3cccs3)C(c3nnnn3C(C)(C)C)C(C)C)cc2c1` (stereo not given) it was inactive: 96%; in that of `O=C(O)CC(NS(=O)(=O)c1ccc(Cl)s1)c1ccccc1` (stereo not given), inactive: 71%.
